{"source": "patent US12583836B2", "about": "(Anaxis Pharma Pty Ltd, priority 2020, dated 2026)", "key": {"[1]": {"tested_on": "U937 cells", "assay": "Counter screen: cell viability without the TSQ cocktail (CelltiterGlo)", "set-up": "species or system human", "conditions": "Homo sapiens, U-937, cell viability by CelltiterGlo, read-out: Off-target effect (IC50 cell-based assay)", "protocol": "Counter screen: In parallel, all compounds were tested for their ability to affect cell viability. The same U937 cells were treated with compound in DMSO without the TSQ cocktail. This counter screen enabled evaluation of off-target effects. In this case, cell viability was measured by CelltiterGlo."}, "[2]": {"tested_on": "U937 human histiocytic leukemia cell line", "assay": "Inhibition of TSQ induced necroptosis, 384 well plate format (CellTitre-Glo)", "conditions": "Homo sapiens, U-937; U937 cells, TSQ cocktail (TNF, Smac mimetic, Q-VD-OPh), CelltiterGlo; read-out: Inhibition of TSQ-induced necroptosis (IC50 cell-based assay)", "protocol": "[…] ASSAY: Screening compounds for inhibition of TSQ induced necroptosis, 384 well plate format.\nCell Line ID: U937 human histiocytic leukemia cell line.\nCell Concentration (cells/well): Final cell density is 20000 cells per well.\nCell growth medium: HT-RPMI medium+7.4% Fetal Bovine Serum (FBS). Cells are cultured in Corning 150 cm^2 tissue culture flasks with vented caps at 37° C./5% CO2.\nIncubation: Plates were incubated at 37° C./5% CO2 in a humidified incubator for 48 hours following addition of compounds and death stimuli (TSQ cocktail).\nCompound concentration: 36 μM starting concentration, 1:3 dilution, 10 point\nDMSO final concentration (% v/v): 0.3%.\nCompounds in TSQ cocktail (T: TNF; S: Smac mimetic; Q: Q-VD-OPh) and their final concentrations:\nhTNF-Fc (100 ng/ml)—produced by standard procedures as shown in Bossen et al., J Biol Chem, 2006, 281(20), 13964-13971.\nCompound A (500 nM)—Smac mimetic, Tetralogic and SYNthesis med chem\nQ-VD-OPh (10 μM)—MP Biomedicals\nThe cellular assay was carried out according to the following steps: • 1. Each well was prepared by sequential addition of: • a. […] Read luminescence readout on a plate reader. […]\nPercent viability was calculated for each compound according to equation (2):\n[formula] • wherein • RawData is the readout of any cell containing a compound of the invention • TA is the total activity provided by the luminescence readout from DMSO only wells (columns 2 and 24)=100% viability • NSA is the non-specific activity provided by DMSO+TSQ wells (columns 1 and 23)=0% viability […]\nAssay involving the TSQ cocktail (T: TNF; S: Smac mimetic; Q: Q-VD-OPh): TSQ treatment ensures that cells specifically undergo necroptotic cell death. […] The compounds' activity (solution in DMSO) tested in this TSQ-induced assay was evaluated by determining the number of viable cells in culture by measuring the amount of ATP present as measured by CelltiterGlo."}}}
{"smiles": "Cc1cnc(Nc2[nH]nc(-c3ccc(NS(=O)(=O)C(F)F)c(OCc4ccc(F)c(F)c4)c3)c2C(N)=O)cn1", "note": "[Compound 291, 3-(3-((3,4-difluorobenzyl)oxy)-4-((difluoromethyl)sulfonamido)phenyl)-5-((5-methylpyrazin-2-yl)amino)-1H-pyrazole-4-carboxamide]", "values": [{"measurement": "IC50", "setting": "[1]", "result": "1000 to 30000", "unit": "nM"}]}
{"smiles": "C[C@H](Oc1cc(-c2n[nH]c(Nc3cc(C4CCOCC4)on3)c2C(N)=O)ccc1NS(=O)(=O)C(F)F)c1ccc(F)cc1", "note": "[Compound 303, (S)-3-(4-((difluoromethyl)sulfonamido)-3-(1-(4-fluorophenyl)ethoxy)phenyl)-5-((5-(tetrahydro-2H-pyran-4-yl)isoxazol-3-yl)amino)-1H-pyrazole-4-carboxamide]", "values": [{"measurement": "IC50", "setting": "[2]", "result": "10 to 1000", "unit": "nM"}, {"measurement": "IC50", "setting": "[1]", "result": "> 30000", "unit": "nM"}]}
{"smiles": "C[C@H](Oc1cc(-c2n[nH]c(Nc3cnn(C4CCOCC4)c3)c2C(N)=O)ccc1NS(=O)(=O)C(F)F)c1ccc(F)cc1", "note": "[Compound 306, (S)-3-(4-((difluoromethyl)sulfonamido)-3-(1-(4-fluorophenyl)ethoxy)phenyl)-5-((1-(tetrahydro-2H-pyran-4-yl)-1H-pyrazol-4-yl)amino)-1H-pyrazole-4-carboxamide]", "values": [{"measurement": "IC50", "setting": "[2]", "result": "10 to 1000", "unit": "nM"}, {"measurement": "IC50", "setting": "[1]", "result": "> 30000", "unit": "nM"}]}
{"smiles": "C[C@H](Oc1cc(-c2n[nH]c(Nc3cc(C(F)F)on3)c2C(N)=O)ccc1NS(=O)(=O)C(F)F)c1ccc(F)cc1", "note": "[Compound 314, (S)-5-((5-(difluoromethyl)isoxazol-3-yl)amino)-3-(4-((difluoromethyl)sulfonamido)-3-(1-(4-fluorophenyl)ethoxy)phenyl)-1H-pyrazole-4-carboxamide]", "values": [{"measurement": "IC50", "setting": "[2]", "result": "10 to 1000", "unit": "nM"}]}
